Data as given in patent US8592455B2 (priority 2008, dated 2013).

Tested on: KMS11 cells
Assay: cells
Settings: Homo sapiens, KMS-11, 72 h, read-out: KMS11-lluc EC50

SMILES	EC50 [µM]
COc1cc(F)c(-c2nc(C(=O)Nc3cnccc3[C@H]3C[C@@H](N)CC(C)(C)C3)ccc2F)c(F)c1 [Example 123, N-(4-((1R,5R)-5-amino-3,3-dimethylcyclohexyl)pyridin-3-yl)-6-(2,6-difluoro-4-methoxyphenyl)-5-fluoropicolinamide]	0.49
CC1(C)C[C@H](N)C[C@H](c2ccncc2NC(=O)c2ccc(F)c(-c3ccc(O)cc3F)n2)C1 [Example 10, N-(4-((1R,5R)-5-amino-3,3-dimethylcyclohexyl)pyridin-3-yl)-5-fluoro-6-(2-fluoro-4-hydroxyphenyl)picolinamide]	2.9
Nc1cc(F)c(-c2c(F)cccc2F)nc1C(=O)Nc1cnccc1[C@@H]1CCC[C@H](N)C1 [Example 100, 3-amino-N-(4-((1R,3S)-3-aminocyclohexyl)pyridin-3-yl)-6-(2,6-difluorophenyl)-5-fluoropicolinamide]	0.28
N[C@H]1CCC[C@@H](c2ccncc2NC(=O)c2nc(-c3cc(O)ccc3F)ccc2F)C1 [Example 34, N-(4-((1R,3S)-3-aminocyclohexyl)pyridin-3-yl)-3-fluoro-6-(2-fluoro-5-hydroxyphenyl)picolinamide]	6
N[C@H]1CCC[C@@H](c2ccncc2NC(=O)c2ccc(F)c([C@H]3CC[C@H](O)CC3)n2)C1 [Example 56, N-(4-((1R,3S)-3-aminocyclohexyl)pyridin-3-yl)-5-fluoro-6-((1r,4r)-4-hydroxycyclohexyl)picolinamide]	> 10
C[C@@H]1C[C@H](N)C[C@H](c2ccncc2NC(=O)c2nc(-c3ccc(O)cc3F)ccc2F)C1 [Example 39, N-(4-((1R,3S,5S)-3-amino-5-methylcyclohexyl)pyridin-3-yl)-3-fluoro-6-(2-fluoro-4-hydroxyphenyl)picolinamide]	6.6
C[C@@H]1C[C@H](N)C[C@H](c2ccncc2NC(=O)c2cccc(-c3ccc(O)cc3F)n2)C1 [Example 37, N-(4-((1R,3S,5S)-3-amino-5-methylcyclohexyl)pyridin-3-yl)-6-(2-fluoro-4-hydroxyphenyl)picolinamide]	1.5
C[C@H]1C[C@@H](c2ccncc2NC(=O)c2ccc(F)c(-c3c(F)cccc3F)n2)C[C@@H](N)[C@H]1F [Example 139, N-(4-((1R,3R,4S,5S)-3-amino-4-fluoro-5-methylcyclohexyl)-pyridin-3-yl)-6-(2,6-difluorophenyl)-5-fluoropicolinamide]	1.9
C[C@H]1CN(c2ccncc2NC(=O)c2ccc(F)c(-c3c(F)cccc3F)n2)C[C@@H](O)[C@@H]1O [Example 116, 6-(2,6-difluorophenyl)-N-(4-((3R,4R,5S)-3,4-dihydroxy-5-methylpiperidin-1-yl)pyridin-3-yl)-5-fluoropicolinamide]	0.29
C[C@H]1C[C@@H](c2ccncc2NC(=O)c2ccc(F)c(-c3c(F)cccc3F)n2)C[C@@H](O)[C@@H]1O [Example 117, 6-(2,6-Difluorophenyl)-N-(4-((1R,3R,4R,5S)-3,4-dihydroxy-5-methylcyclohexyl)pyridin-3-yl)-5-fluoropicolinamide]	2.5
Cc1ccc(F)c(-c2cccc(C(=O)Nc3cnccc3[C@H]3C[C@@H](N)[C@@H](O)[C@@H](C)C3)n2)c1F [Example 31, N-(4-((1R,3R,4S,5S)-3-amino-4-hydroxy-5-methylcyclohexyl)pyridin-3-yl)-6-(2,6-difluoro-3-methylphenyl)picolinamide]	1.1
Cc1ccc(F)c(-c2cccc(C(=O)Nc3cnccc3[C@@H]3C[C@H](C)C[C@H](N)C3)n2)c1F [Example 29, N-(4-((1R,3S,5S)-3-amino-5-methylcyclohexyl)pyridin-3-yl)-6-(2,6-difluoro-3-methylphenyl)picolinamide]	1.4
Nc1ccc(-c2c(F)cccc2F)nc1C(=O)Nc1cnccc1[C@@H]1CC[C@H](O)[C@H](N)C1 (stereo in doubt) [Example 102, 3-amino-N-(4-(3-amino-4-hydroxycyclohexyl)pyridin-3-yl)-6-(2,6-difluorophenyl)picolinamide]	0.87
C[C@@H]1C[C@H](c2ccncc2NC(=O)c2cccc(-c3c(F)cccc3F)n2)C[C@H](N)[C@H]1O (stereo in doubt) [Example 52, N-(4-((1S,3S,4S,5R)-3-amino-4-hydroxy-5-methylcyclohexyl)pyridin-3-yl)-6-(2,6-difluorophenyl)picolinamide]	0.83
C[C@@H]1C[C@H](N)C[C@H](c2ccncc2NC(=O)c2nc(-c3cc(O)ccc3F)ccc2F)C1 [Example 43, N-(4-((1R,3S,5S)-3-amino-5-methylcyclohexyl)pyridin-3-yl)-3-fluoro-6-(2-fluoro-5-hydroxyphenyl)picolinamide]	2.2
Cc1ccc(F)c(-c2nc(C(=O)Nc3cnccc3[C@@H]3CCC[C@H](N)C3)ccc2F)c1F [Example 20, N-(4-((1R,3S)-3-aminocyclohexyl)pyridin-3-yl)-6-(2,6-difluoro-3-methylphenyl)-5-fluoropicolinamide]	1.5
C[C@@H]1C[C@H](N)C[C@H](c2ccncc2NC(=O)c2ccc(F)c([C@H]3CC[C@H](O)CC3)n2)C1 [Example 55, N-(4-((1R,3S,5S)-3-amino-5-methylcyclohexyl)pyridin-3-yl)-5-fluoro-6-((1r,4r)-4-hydroxycyclohexyl)picolinamide]	4.9
C[C@H]1CN(c2ccncc2NC(=O)c2cccc(-c3c(F)cccc3F)n2)C[C@@H](N)[C@@H]1O [Example 26, N-(4-((3R,4R,5S)-3-amino-4-hydroxy-5-methylpiperidin-1-yl)pyridin-3-yl)-6-(2,6-difluorophenyl)picolinamide]	0.29
Cc1ccc(F)c(-c2cccc(C(=O)Nc3cnccc3[C@H]3C[C@@H](N)[C@@H](O)[C@@H](C)C3)n2)c1 [Example 74, N-(4-((1R,3R,4S,5S)-3-amino-4-hydroxy-5-methylcyclohexyl)pyridin-3-yl)-6-(2-fluoro-5-methylphenyl)picolinamide]	2.9
CCc1ccc(F)c(-c2cccc(C(=O)Nc3cnccc3[C@H]3C[C@@H](N)[C@@H](O)[C@@H](C)C3)n2)c1F [Example 17, N-(4-((1R,3R,4S,5S)-3-amino-4-hydroxy-5-methylcyclohexyl)pyridin-3-yl)-6-(3-ethyl-2,6-difluorophenyl)picolinamide]	3.5
C[C@H]1C[C@@H](c2ccncc2NC(=O)c2nc(-c3c(F)cccc3F)c(F)cc2N)C[C@@H](N)[C@H]1O (stereo in doubt) [Example 132, 3-amino-N-(4-(3-amino-4-hydroxy-5-methylcyclohexyl)pyridin-3-yl)-6-(2,6-difluorophenyl)-5-fluoropicolinamide]	0.38
C[C@@H]1C[C@H](O)C[C@H](c2ccncc2NC(=O)c2ccc(F)c(-c3c(F)cccc3F)n2)C1 [Example 1, 6-(2,6-difluorophenyl)-5-fluoro-N-(4-((1R,3S,5S)-3-hydroxy-5-methylcyclohexyl)pyridin-3-yl)picolinamide]	7.6
Cc1ccc(F)c(-c2nc(C(=O)Nc3cnccc3[C@H]3C[C@@H](N)CC(C)(C)C3)ccc2F)c1F [Example 11, N-(4-((1R,5R)-5-amino-3,3-dimethylcyclohexyl)pyridin-3-yl)-6-(2,6-difluoro-3-methylphenyl)-5-fluoropicolinamide]	2.6
